Measurements as given in PubChem BioAssay AID488969 (Vanderbilt High Throughput Screening Facility, 2010).
The full ranking holds about 110,000 compounds; the median of “z-score” is about -0.1, and the highest 2% start at about 2. The list shows a part of the results. The source made the active and inactive calls.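 The calls were made as follows: active = z-score in the third read window above 3 or below -3; inactive = the rest.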

The compounds below were run against Metabotropic glutamate receptor 8 (Rattus norvegicus) (UniProt P70579) (assay: mGluR8 Gi/Go-coupled signaling modulation – cell-based, rat, thallium flux, HTS, primary screen (AID 488969)). Conditions: HEK293 rat mGluR8, GIRK (G protein-gated inwardly rectifying potassium channel) thallium flux, FluoZin2; at 10 µM; stronger effect = higher value; submaximal glutamate (EC20) added with thallium.
UniProt P70579, sequence (P70579 whole entry, looked up): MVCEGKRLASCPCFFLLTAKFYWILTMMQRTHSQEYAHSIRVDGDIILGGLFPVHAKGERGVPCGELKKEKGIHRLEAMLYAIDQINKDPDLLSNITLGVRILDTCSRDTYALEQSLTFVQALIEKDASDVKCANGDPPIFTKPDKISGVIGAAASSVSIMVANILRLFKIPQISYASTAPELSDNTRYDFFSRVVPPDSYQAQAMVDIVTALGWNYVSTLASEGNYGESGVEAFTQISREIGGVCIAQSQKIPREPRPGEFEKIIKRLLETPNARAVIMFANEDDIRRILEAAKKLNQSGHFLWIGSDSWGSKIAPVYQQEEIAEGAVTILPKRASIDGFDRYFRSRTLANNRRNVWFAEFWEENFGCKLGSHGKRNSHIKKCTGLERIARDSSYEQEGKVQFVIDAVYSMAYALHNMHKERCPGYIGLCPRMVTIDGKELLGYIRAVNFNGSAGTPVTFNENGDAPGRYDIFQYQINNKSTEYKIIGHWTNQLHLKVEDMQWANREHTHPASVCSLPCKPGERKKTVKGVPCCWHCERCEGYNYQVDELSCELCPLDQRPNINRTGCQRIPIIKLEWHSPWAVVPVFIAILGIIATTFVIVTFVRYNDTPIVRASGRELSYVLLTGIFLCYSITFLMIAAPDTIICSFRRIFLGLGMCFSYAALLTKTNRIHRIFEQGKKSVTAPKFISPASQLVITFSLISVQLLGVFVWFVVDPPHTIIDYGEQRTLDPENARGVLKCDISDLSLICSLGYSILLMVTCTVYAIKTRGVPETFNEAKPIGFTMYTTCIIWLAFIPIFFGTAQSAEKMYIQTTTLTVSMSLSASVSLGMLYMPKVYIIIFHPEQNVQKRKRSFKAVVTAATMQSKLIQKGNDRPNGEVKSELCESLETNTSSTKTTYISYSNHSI
For CC1Cc2nc(SCC(=O)NC3CCCCC3)n(C)c(=O)c2S1 (stereo unspecified), the z-score was -0.413.
Compound Cc1ccccc1-n1c(C)nnc1SCC(=O)NC1CCCc2ccccc21 (stereo unspecified) has a z-score of -0.34.
CC/C(=C\C(=O)c1cccnc1)Nc1ccc(C)c(C)c1 showed a z-score of -0.246.
Cc1c(C(=O)N/N=C/C(C)C)[nH]c2c([N+](=O)[O-])cccc12 showed a z-score of -0.722.
Compound Cc1cc2cc3c(cc2nc1SCC(=O)OC(C)C)OCCO3 has a z-score of 0.0166.
For Cc1nnc(N2CCCCC2)c2ccccc12, the z-score was -0.014.
Work on Cc1cc(Oc2ccc3ccccc3c2)nc(SCC(=O)c2ccccc2)n1 yielded a z-score of -0.14.
With Cc1ccc(/C=N/NC(=O)c2cccc(S(=O)(=O)Nc3ccccc3Cl)c2)s1 the z-score was 0.128.
Cc1cc(N2CCC(C)CC2)nc(SCC(=O)c2ccccc2)n1 was tested, and the z-score was -0.578.
With CNC(=O)CN(C#N)c1nc(N(C)C)nc(N(C)C)n1 the z-score was 1.02.
For O=c1c2c(n3nnnc3n1-c1ccccc1)-c1ccccc1CC21CCCC1, the z-score was -0.0588.
In the case of O=C1CC(c2ccccc2)CC(O)=C1C=NC1CCCCCC1 (stereo unspecified), the z-score is reported as -0.211.
Cn1c(SCC(=O)Nc2ccc3c(c2)oc2ccccc23)nnc1-c1ccccc1 was tested, and the z-score was -1.01.
Cc1ccc(C(=O)/C=C2/NC(=O)CS2)cc1 gave a z-score of -0.116.
Work on CCN1C(=O)CC(C(=O)Nc2ccc(F)cc2)SC1=Nc1ccc2c(c1)OCO2 (stereo unspecified) yielded a z-score of 0.106.
In the case of O=C(NCCc1c[nH]c2ccccc12)/C(=C\c1cccnc1)NC(=O)c1cccs1, the z-score is reported as -0.234.
COc1ccc(/C(O)=C2\C(=O)C(=O)N(CCN3CCOCC3)C2c2ccccc2OC)cc1 (stereo unspecified) was tested, and the z-score was -0.349.
O=C(NC1CC1)c1cc(F)c(F)cc1Cl was tested, and the z-score was 0.351.
Work on CN(C)c1nc2n(c(=O)n1)CCO2 yielded a z-score of 0.82.
Compound C=CCc1cccc2cc(C(=O)NCc3ccc(C(=O)OCC)o3)c(=O)oc12 has a z-score of -1.25.
O=C(COC(=O)[C@@H]1CCCN1S(=O)(=O)c1ccc(Cl)cc1)NC12CC3CC(CC(C3)C1)C2 gave a z-score of -0.226.
For CC(C)NC(=O)C(=O)NCCc1ccc(Cl)cc1, the z-score was -0.166.
O=C(c1cn(-c2ccccc2)nc1-c1ccncc1)N1CCCCC1 gave a z-score of 0.214.
For Cc1cccc(-n2nc([N+](=O)[O-])c(=NCc3cccnc3)n2O)c1, the z-score was -0.128.
Work on O=C(c1cc2ccccc2oc1=O)N(Cc1ccccc1)C1CCS(=O)(=O)C1 (stereo unspecified) yielded a z-score of 0.189.
Work on Cc1ccnc(NS(=O)(=O)c2ccc(NS(=O)(=O)Cc3ccccc3)cc2)n1 yielded a z-score of 1.04.
In the case of Cn1c(SCC(=O)N2CCOCC2)nc(O)cc1=O, the z-score is reported as -0.116.
Cc1cccc(C)c1-n1c(C)cc(/C=N/NC(=O)c2ccncc2)c1C was tested, and the z-score was 0.0638.
Work on O=c1c2ccccc2nc2n1C(CSCc1cccc(C(F)(F)F)c1)CS2 (stereo unspecified) yielded a z-score of -0.503.
CC(=O)N1N=C(c2cccc([N+](=O)[O-])c2)OC1c1ccc(Cl)cc1Cl (stereo unspecified) was tested, and the z-score was -1.04.
Compound COc1ccc(Cl)cc1N(CC(=O)Nc1ccccc1C(=O)NCc1ccco1)S(C)(=O)=O has a z-score of -0.101.
COc1ccc(OC)c(NC(=O)C(CC(=O)O)Cc2ccc(Cl)cc2)c1 (stereo unspecified) gave a z-score of 0.246.
With CC1=CCC2C(=O)N(c3ccc4ccccc4n3)C(=O)C2C1 (stereo unspecified) the z-score was 0.146.
With c1ccc(-c2nnc(-c3c[nH]c4ccccc34)nc2-c2ccccc2)cc1 the z-score was 1.07.
Work on Cc1nc2sc(C(c3cccs3)N3CCC4(CC3)OCCO4)c(O)n2n1 (stereo unspecified) yielded a z-score of 0.0976.
With O=C(Nc1ccc(Cl)c(C(F)(F)F)c1)C(=O)N1CCCCC1 the z-score was 0.0282.
O=C(/C=C/c1ccccc1)NCCSCc1ccccc1Cl gave a z-score of -0.358.
In the case of CS(=O)(=O)N1CCCC(C(=O)NCCN2CCC(Cc3ccccc3)CC2)C1 (stereo unspecified), the z-score is reported as -0.561.
In the case of CC(C)C(=O)NC(c1ccccc1Cl)c1c(O)ccc2ccccc12 (stereo unspecified), the z-score is reported as -0.153.
Cn1c(NCc2ccco2)nc2c1c(=O)n(Cc1ccc(Br)cc1)c(=O)n2C showed a z-score of 0.0118.
For COc1ccccc1-c1nc(NC(C)=O)n[nH]1, the z-score was 0.27.
O=C(Nc1ccccc1)c1[nH]ncc1[N+](=O)[O-] was tested, and the z-score was -0.189.
In the case of COc1cc(S(=O)(=O)N2CCN=C2c2ccccc2)ccc1F, the z-score is reported as -0.526.
For CCc1nc(SCC(=O)N2CCc3cc(OC)c(OC)cc3C2)c(C#N)cc1C, the z-score was -0.152.
With CC(C)(C)c1ccc(CN2C3=NCCCN3c3ccccc32)cc1 the z-score was active: 4.19.
CCC(C)NC(=O)N[C@@H](CCSC)C(=O)OC (stereo partly specified) showed a z-score of -0.115.
CN1OC(COC(=O)c2ccc(Cl)cc2Cl)CC1c1ccccc1 (stereo unspecified) showed a z-score of 0.0312.
In the case of Cc1cc(C(=O)Nc2ccon2)cs1, the z-score is reported as 0.207.
CCOc1cc(/C=N/Nc2ncnc(Cl)c2N)ccc1O gave a z-score of -0.193.
Cc1cc(=O)oc2cc(OCC(=O)N3CCCc4ccccc43)ccc12 gave a z-score of 0.88.
In the case of Cc1nc(-c2ccccc2)nc2[nH]c(C(C)C)cc(=O)c12, the z-score is reported as -0.572.
O=C(CSc1ccc(Cl)cc1)c1ccco1 gave a z-score of 0.233.
Work on O=C(C1CCN(CCCc2ccccc2)CC1)N1CCCCC1 yielded a z-score of -0.145.
COc1ccc(CCNC(=O)CN2CCC(C(N)=O)CC2)cc1 showed a z-score of 0.63.
With O=C(Nc1cc2c(cc1Br)OCCO2)c1ccco1 the z-score was 0.101.
In the case of CC(=O)C1=C(C)NC(C)=C(C(C)=O)C1c1cn(-c2ccccc2)nc1-c1cccs1, the z-score is reported as 0.325.
Cc1nc2sccn2c(=O)c1Br was tested, and the z-score was 0.0767.
With COc1cc(C(=O)Nc2cc(C(F)(F)F)ccc2Cl)cc(OC)c1OC the z-score was -0.494.
In the case of CC(C)c1ccc(N=c2c([N+](=O)[O-])nn(-c3ccc4c(c3)OCCO4)n2O)cc1, the z-score is reported as 0.06.
O=C(c1ccccc1F)N(Cc1ccc(F)cc1)C1CCS(=O)(=O)C1 (stereo unspecified) showed a z-score of 0.106.
Work on CCOC(=O)c1c(NC(NC(=O)C(C)C)C(Cl)(Cl)Cl)sc2c1CCC2 (stereo unspecified) yielded a z-score of -0.163.
O=C(CSc1ncnc2scc(-c3ccccc3)c12)NCc1ccc2c(c1)OCO2 gave a z-score of -0.339.
Compound CC(C)(C)c1cc(C(=O)N2CCc3ccccc32)ccn1 has a z-score of -0.218.
For C=CCn1c(Cc2c(C)[nH]c3ccccc23)nnc1SCC(=O)NCc1ccc(F)cc1, the z-score was -0.996.
With CCCCCCOC(=O)C(C#N)c1nc2ccccc2nc1N1CCCCC1 (stereo unspecified) the z-score was -0.00593.
COc1ccc(CC(=O)NC(C)(C)C)cc1S(=O)(=O)N1CCOCC1 was tested, and the z-score was -0.00904.
Work on COC(=O)c1cc(Cl)c(NC(=O)/C=C/c2ccc(Cl)cc2Cl)cc1OC yielded a z-score of -0.186.
With CCOc1ccc(C2=[N+]([O-])C(C)(C)N(O)C2(C)C)cc1 the z-score was 0.0752.
COc1ccccc1C(=O)NCCc1nc2ccccc2[nH]1 showed a z-score of 0.0888.
O=C(Nc1ccc2c(c1)OCO2)c1ccc(Cl)nc1 showed a z-score of -0.782.
Compound CC(C)C(NS(=O)(=O)c1ccc2c(c1)OCCO2)C(=O)NCCc1ccccn1 (stereo unspecified) has a z-score of 0.0748.
For Cc1ccc(S(=O)(=O)Nc2nncs2)cc1, the z-score was 0.0436.
CCCCNC(=O)CS(=O)Cc1nc(-c2cccc(C)c2)oc1C (stereo unspecified) was tested, and the z-score was -0.163.
Nc1cc(=O)[nH]c(SCC(=O)N2CCc3ccccc3C2)n1 was tested, and the z-score was -0.182.
For O=C(NC(=S)Nc1ccccc1N1CCCC1)c1ccc(-c2cccc([N+](=O)[O-])c2)o1, the z-score was active: 5.71.
Cn1cc(S(=O)(=O)N2CCN(c3ccc(F)cc3)CC2)c(=O)n(C)c1=O gave a z-score of 0.112.
For Nc1c(-c2ccc(Cl)cc2)nnn1-c1ccccc1, the z-score was -0.144.
CCS(=O)(=O)N1CCC(C(=O)NCc2cccs2)CC1 showed a z-score of 0.227.
With CCN(CC)CCNC(=O)C1CCC(=O)N1CCc1ccccc1 (stereo unspecified) the z-score was -0.348.
Cc1occc1C(=O)NNC(=O)c1ccc(F)cc1 gave a z-score of 0.382.
For Cc1cc([N+](=O)[O-])nn1CCCC(=O)N1CCN(c2ccccc2)CC1, the z-score was -0.0396.
Work on CCOC(=O)CNC(=O)CNC(=O)c1ccc(OCC(C)C)cc1 yielded a z-score of 0.297.
In the case of CCOc1ccc(C(NC(=O)/C=C/c2ccco2)c2ccc(OC)c(OC)c2)cc1 (stereo unspecified), the z-score is reported as 0.073.
O=C(c1cccnc1)N1CCC(c2nc3ccccc3[nH]2)CC1 was tested, and the z-score was 0.91.
Cc1ccccc1Cn1cnc2c([N+](=O)[O-])c(C)c(C)cc21 gave a z-score of -1.13.
Cc1cccc(Cl)c1OCCCCn1ccnc1 was tested, and the z-score was 0.296.
CCn1c(CSCc2ccc(F)cc2)nnc1SCC(=O)N1CCN(c2ccccc2)CC1 was tested, and the z-score was -0.278.
Work on COc1ccc(CC(NC(=O)c2ccccc2)C(=O)NCC(=O)O)cc1 (stereo unspecified) yielded a z-score of 0.374.
For O=C(NCc1nc(-c2ccccc2)no1)c1cccs1, the z-score was -0.0454.
Compound Cc1cccc(OCC(=O)Nc2ccc(N3CCN(S(C)(=O)=O)CC3)cc2)c1C has a z-score of 0.0465.
With CCOc1ccccc1C(=O)N1CCCCC1C (stereo unspecified) the z-score was -2.42.
Work on C=C(C)Cn1c(N(CCO)Cc2ccccc2)nc2c1c(=O)[nH]c(=O)n2C yielded a z-score of -0.125.
Work on N#CC1(C#N)C(C(N)=O)C1c1ccccc1 (stereo unspecified) yielded a z-score of -0.103.
In the case of O=C1c2ccccc2NC2(CCCCC2)N1N=C1CCCCC1, the z-score is reported as -0.197.
In the case of O=S(=O)(Cc1ccccc1)N1CCC(c2nc(-c3cccs3)no2)CC1, the z-score is reported as -0.342.
COc1ccc(/C=C/C(=O)c2ccc[nH]2)c(OC)c1OC showed a z-score of -0.661.
Work on ClCc1nnc(-c2ccccc2)o1 yielded a z-score of -0.143.
Work on O=C(c1cccc(C(F)(F)F)c1)N1CCC(O)(CS(=O)(=O)Cc2ccc(Cl)cc2)CC1 yielded a z-score of 0.366.
O=c1c(F)cn(C2CCCO2)c(=O)n1Cc1c(F)cccc1Cl (stereo unspecified) gave a z-score of -0.104.
Compound COc1ccc(C(C(=O)NC2CCCC2)N(C(=O)c2ccoc2C)c2cc(C)cc(C)c2)cc1 (stereo unspecified) has a z-score of -0.442.
Compound O=S(=O)(c1cccc2c(S(=O)(=O)N3CCCC3)cccc12)N1CCCC1 has a z-score of 0.19.
Compound CC1(c2ccc(Cl)cc2)NC(=O)N(CC(=O)NCc2cccs2)C1=O (stereo unspecified) has a z-score of 0.0849.
In the case of CC1CCN(C(=O)CCNS(=O)(=O)c2ccccc2)CC1, the z-score is reported as -0.297.
COC(=O)C1CCN(S(C)(=O)=O)CC1 gave a z-score of -0.211.
In the case of Cc1ccc(O)c(C2=Nc3ccccc3N=C(c3ccco3)C2)c1, the z-score is reported as -0.147.
COc1ccc2[nH]cc(C3N4CC5(C)CN3CC(C)(C4)C5=O)c2c1 (stereo unspecified) showed a z-score of 1.24.
COc1cc(C(=S)N2CCOCC2)ccc1OC(=O)c1cc([N+](=O)[O-])c(C)c([N+](=O)[O-])c1 was tested, and the z-score was 0.117.
COc1ccc(C(=O)N(CC2CCCO2)C(C(=O)NC2CCCC2)c2ccc(Cl)cc2)cc1OC (stereo unspecified) gave a z-score of -0.0674.
Cc1nn(Cc2c(F)c(F)c(F)c(F)c2F)c(C)c1NC(=O)c1cccc(COc2ccccc2Cl)c1 showed a z-score of -0.784.
Work on Cc1cc(C)n(-c2ccc(Cl)c(C(=O)OCC(N)=O)n2)n1 yielded a z-score of -0.673.
With Cc1n[nH]c(C)c1CCC(=O)N/N=C/C=C/c1ccccc1 the z-score was -0.227.
